Laboratory results as given in the supplement of paper PMC9151546.
Many values rest on one well or one pass, so single values are uncertain.

Experiments:
CHO-K1 [1] = assay: micronucleus frequency (% of nucleated events); higher = more micronuclei (genotoxic)
CHO-K1 [2] = assay: hypodiploid nuclei frequency (% of nucleated events); higher = more hypodiploid events (aneugenic)
Method: (§1)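 Flow-cytometric in vitro micronucleus assay (Litron MicroFlow) in CHO-K1 cells in 96-well plates, 19 concentrations (4.5-200 µM, n=1 per concentration). Without S9, cells were exposed for 24 h and sampled at 48 h. With Aroclor 1254-induced rat liver S9, cells were exposed for 3-4 h and sampled at 27-28 h. Read-outs are %MN and %hypodiploid nuclei relative to nucleated events, and relative survival as the nuclei-to-bead ratio versus the 1% DMSO vehicle control (x100).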

CHO-K1 [3] = assay: relative survival (nuclei to bead ratio vs DMSO control) (% of vehicle control); higher = more surviving cells
Method: as §1
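For hypodiploid nuclei frequency (% of nucleated events) in this document: hypodiploid nuclei gated on a flow cytometer with 488 nm excitation after SYTOX Green staining, cultures at 37 °C, positive controls vinblastine without S9 and cyclophosphamide with S9.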
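For micronucleus frequency (% of nucleated events) in this document: cells lysed with nuclei stained by SYTOX Green, then micronucleus-gated events counted against nucleated events by flow cytometry with 488 nm excitation.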
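For relative survival (nuclei to bead ratio vs DMSO control) in this document: Lysed-cell nuclei stained with SYTOX Green and counted against counting beads by flow cytometry at 488 nm excitation, with vinblastine (no S9) and cyclophosphamide (plus S9) as positive controls.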

OCCC(F)(F)C(F)(F)C(F)(F)C(F)(F)C(F)(F)C(F)(F)C(F)(F)C(F)(F)F [1,1,2,2-Tetrahydroperfluoro-1-decanol]
Details	hypodiploid nuclei frequency, CHO-K1 [2] [%]	micronucleus frequency, CHO-K1 [1] [%]	relative survival, CHO-K1 [3]
concentration: 4.5 (µM), S9 metabolic activation: with S9, exposure time: 3-4 hours	0.38	1.44	120
concentration: 4.5 (µM), S9 metabolic activation: without S9, exposure time: 24 hours	0.26	1.76	148
concentration: 5.63 (µM), S9 metabolic activation: with S9, exposure time: 3-4 hours	0.2	1.7	113
concentration: 5.63 (µM), S9 metabolic activation: without S9, exposure time: 24 hours	0.44	1.36	125
concentration: 7.04 (µM), S9 metabolic activation: with S9, exposure time: 3-4 hours	0.3	1.76	98.2
concentration: 7.04 (µM), S9 metabolic activation: without S9, exposure time: 24 hours	0.56	1.24	118
concentration: 8.8 (µM), S9 metabolic activation: with S9, exposure time: 3-4 hours	0.14	1.52	105
concentration: 8.8 (µM), S9 metabolic activation: without S9, exposure time: 24 hours	0.46	1.16	83.7
concentration: 11 (µM), S9 metabolic activation: with S9, exposure time: 3-4 hours	0.32	2.28	103
concentration: 11 (µM), S9 metabolic activation: without S9, exposure time: 24 hours	0.52	1.48	111
concentration: 13.7 (µM), S9 metabolic activation: with S9, exposure time: 3-4 hours	0.22	2.06	133
concentration: 13.7 (µM), S9 metabolic activation: without S9, exposure time: 24 hours	0.52	1.32	116
concentration: 17.2 (µM), S9 metabolic activation: with S9, exposure time: 3-4 hours	0.34	2.06	109
concentration: 17.2 (µM), S9 metabolic activation: without S9, exposure time: 24 hours	0.4	1.06	113
concentration: 21.5 (µM), S9 metabolic activation: with S9, exposure time: 3-4 hours	0.14	1.48	112
concentration: 21.5 (µM), S9 metabolic activation: without S9, exposure time: 24 hours	0.44	1.22	112
concentration: 26.8 (µM), S9 metabolic activation: with S9, exposure time: 3-4 hours	0.18	1.18	88.5
concentration: 26.8 (µM), S9 metabolic activation: without S9, exposure time: 24 hours	0.56	1.08	110
concentration: 33.6 (µM), S9 metabolic activation: with S9, exposure time: 3-4 hours	0.28	2.06	90.2
concentration: 33.6 (µM), S9 metabolic activation: without S9, exposure time: 24 hours	0.54	0.98	148
concentration: 41.9 (µM), S9 metabolic activation: with S9, exposure time: 3-4 hours	0.24	1.66	86
concentration: 41.9 (µM), S9 metabolic activation: without S9, exposure time: 24 hours	0.46	2.08	138
concentration: 52.4 (µM), S9 metabolic activation: with S9, exposure time: 3-4 hours	0.34	0.96	80.5
concentration: 52.4 (µM), S9 metabolic activation: without S9, exposure time: 24 hours	0.52	1.12	98.7
concentration: 65.5 (µM), S9 metabolic activation: with S9, exposure time: 3-4 hours	0.16	1.2	95.9
concentration: 65.5 (µM), S9 metabolic activation: without S9, exposure time: 24 hours	0.7	1.54	112
concentration: 81.9 (µM), S9 metabolic activation: with S9, exposure time: 3-4 hours	0.16	1.76	90
concentration: 81.9 (µM), S9 metabolic activation: without S9, exposure time: 24 hours	1	1.52	112
concentration: 102 (µM), S9 metabolic activation: with S9, exposure time: 3-4 hours	0.38	3.3	73.2
concentration: 102 (µM), S9 metabolic activation: without S9, exposure time: 24 hours	0.74	1.56	87.3
concentration: 128 (µM), S9 metabolic activation: with S9, exposure time: 3-4 hours	0.12	1.8	102
concentration: 128 (µM), S9 metabolic activation: without S9, exposure time: 24 hours	0.52	2.26	67
concentration: 160 (µM), S9 metabolic activation: with S9, exposure time: 3-4 hours	0.28	2.12	92
concentration: 160 (µM), S9 metabolic activation: without S9, exposure time: 24 hours	–	–	38.2
concentration: 200 (µM), S9 metabolic activation: with S9, exposure time: 3-4 hours	0.24	3.96	87.6
concentration: 200 (µM), S9 metabolic activation: without S9, exposure time: 24 hours	–	–	7.09

c1ccc2n[nH]nc2c1 [1,2,3-Benzotriazole]
Details	hypodiploid nuclei frequency, CHO-K1 [2] [%]	micronucleus frequency, CHO-K1 [1] [%]	relative survival, CHO-K1 [3]
concentration: 4.5 (µM), S9 metabolic activation: with S9, exposure time: 3-4 hours	0.16	0.8	76.9
concentration: 4.5 (µM), S9 metabolic activation: without S9, exposure time: 24 hours	0.42	1	85.4
concentration: 5.63 (µM), S9 metabolic activation: with S9, exposure time: 3-4 hours	0.42	0.94	74.3
concentration: 5.63 (µM), S9 metabolic activation: without S9, exposure time: 24 hours	0.5	1.3	93.1
concentration: 7.04 (µM), S9 metabolic activation: with S9, exposure time: 3-4 hours	0.22	0.74	88.2
concentration: 7.04 (µM), S9 metabolic activation: without S9, exposure time: 24 hours	0.72	1.12	112
concentration: 8.8 (µM), S9 metabolic activation: with S9, exposure time: 3-4 hours	0.18	0.8	84.2
concentration: 8.8 (µM), S9 metabolic activation: without S9, exposure time: 24 hours	0.8	1.22	104
concentration: 11 (µM), S9 metabolic activation: with S9, exposure time: 3-4 hours	0.16	0.96	94.2
concentration: 11 (µM), S9 metabolic activation: without S9, exposure time: 24 hours	0.56	1.04	99.2
concentration: 13.7 (µM), S9 metabolic activation: with S9, exposure time: 3-4 hours	0.18	0.76	121
concentration: 13.7 (µM), S9 metabolic activation: without S9, exposure time: 24 hours	0.62	1.22	104
concentration: 17.2 (µM), S9 metabolic activation: with S9, exposure time: 3-4 hours	0.32	1.26	103
concentration: 17.2 (µM), S9 metabolic activation: without S9, exposure time: 24 hours	0.54	1	107
concentration: 21.5 (µM), S9 metabolic activation: with S9, exposure time: 3-4 hours	0.06	1.22	109
concentration: 21.5 (µM), S9 metabolic activation: without S9, exposure time: 24 hours	0.68	1.12	94.6
concentration: 26.8 (µM), S9 metabolic activation: with S9, exposure time: 3-4 hours	0.22	1.2	89.8
concentration: 26.8 (µM), S9 metabolic activation: without S9, exposure time: 24 hours	0.66	1.18	98
concentration: 33.6 (µM), S9 metabolic activation: with S9, exposure time: 3-4 hours	0.14	0.82	88.9
concentration: 33.6 (µM), S9 metabolic activation: without S9, exposure time: 24 hours	0.36	0.94	102
concentration: 41.9 (µM), S9 metabolic activation: with S9, exposure time: 3-4 hours	0.26	1.02	88.4
concentration: 41.9 (µM), S9 metabolic activation: without S9, exposure time: 24 hours	0.64	1.18	84.1
concentration: 52.4 (µM), S9 metabolic activation: with S9, exposure time: 3-4 hours	0.22	1.06	90.5
concentration: 52.4 (µM), S9 metabolic activation: without S9, exposure time: 24 hours	0.62	1.32	91.5
concentration: 65.5 (µM), S9 metabolic activation: with S9, exposure time: 3-4 hours	0.12	0.86	85
concentration: 65.5 (µM), S9 metabolic activation: without S9, exposure time: 24 hours	0.82	1.38	104
concentration: 81.9 (µM), S9 metabolic activation: with S9, exposure time: 3-4 hours	0.16	0.88	78.8
concentration: 81.9 (µM), S9 metabolic activation: without S9, exposure time: 24 hours	0.76	1.3	104
concentration: 102 (µM), S9 metabolic activation: with S9, exposure time: 3-4 hours	0.22	1.16	95.8
concentration: 102 (µM), S9 metabolic activation: without S9, exposure time: 24 hours	1.38	1.34	85
concentration: 128 (µM), S9 metabolic activation: with S9, exposure time: 3-4 hours	0.12	1.14	90
concentration: 128 (µM), S9 metabolic activation: without S9, exposure time: 24 hours	0.94	1.26	102
concentration: 160 (µM), S9 metabolic activation: with S9, exposure time: 3-4 hours	0.16	0.98	96.5
concentration: 160 (µM), S9 metabolic activation: without S9, exposure time: 24 hours	1.24	1.46	77.8
concentration: 200 (µM), S9 metabolic activation: with S9, exposure time: 3-4 hours	0.18	1.38	79.2
concentration: 200 (µM), S9 metabolic activation: without S9, exposure time: 24 hours	2	2.3	74
